Here are results for 43 molecules from paper PMC4336329 (PLoS ONE, 2015).

Screen size: about 310,000 compounds; about 14,000 (4.5%) showed an effect of 50% or more. The effect is printed as a negative number. The list shows a part of the results.
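Also: peak tail current of the secondary pulse compared with the same well before compound.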

Chain of human ether-à-go-go-related gene (hERG) potassium channel (Q12809 whole entry, looked up): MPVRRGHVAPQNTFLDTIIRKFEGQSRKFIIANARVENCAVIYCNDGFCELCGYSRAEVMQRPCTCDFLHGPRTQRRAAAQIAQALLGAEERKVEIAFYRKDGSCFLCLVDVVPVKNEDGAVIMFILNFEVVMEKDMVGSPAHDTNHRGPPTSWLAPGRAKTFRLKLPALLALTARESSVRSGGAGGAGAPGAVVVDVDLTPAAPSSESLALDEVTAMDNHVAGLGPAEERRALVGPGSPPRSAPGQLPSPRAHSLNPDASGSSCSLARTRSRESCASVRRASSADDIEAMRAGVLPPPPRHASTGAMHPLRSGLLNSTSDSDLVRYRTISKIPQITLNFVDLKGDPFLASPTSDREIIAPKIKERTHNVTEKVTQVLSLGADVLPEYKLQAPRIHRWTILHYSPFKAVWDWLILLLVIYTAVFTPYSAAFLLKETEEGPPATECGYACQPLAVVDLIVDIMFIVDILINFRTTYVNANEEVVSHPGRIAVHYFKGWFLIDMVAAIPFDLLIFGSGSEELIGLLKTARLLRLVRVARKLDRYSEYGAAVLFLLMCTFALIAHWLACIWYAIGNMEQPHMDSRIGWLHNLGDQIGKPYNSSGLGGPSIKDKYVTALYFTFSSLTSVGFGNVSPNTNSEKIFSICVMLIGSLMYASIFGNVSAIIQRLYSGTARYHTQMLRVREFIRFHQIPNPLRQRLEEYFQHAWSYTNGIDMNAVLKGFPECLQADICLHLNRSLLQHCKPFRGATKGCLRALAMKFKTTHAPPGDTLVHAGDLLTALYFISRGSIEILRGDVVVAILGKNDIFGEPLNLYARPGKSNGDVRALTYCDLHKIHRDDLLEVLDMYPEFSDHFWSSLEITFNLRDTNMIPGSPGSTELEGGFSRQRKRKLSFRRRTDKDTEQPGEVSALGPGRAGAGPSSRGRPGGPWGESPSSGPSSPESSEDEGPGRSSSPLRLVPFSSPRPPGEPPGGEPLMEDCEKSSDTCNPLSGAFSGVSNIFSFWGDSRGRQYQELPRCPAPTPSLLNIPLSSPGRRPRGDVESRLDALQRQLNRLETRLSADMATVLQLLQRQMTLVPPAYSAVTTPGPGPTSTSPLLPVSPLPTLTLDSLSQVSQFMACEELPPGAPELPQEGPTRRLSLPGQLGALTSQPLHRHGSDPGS

This experiment addresses human ether-à-go-go-related gene (hERG) potassium channel (human, UniProt Q12809). The experiment in a line: primary screen, population patch clamp on CHO cells stably expressing hERG.
As for `O=C(COc1ccccc1)Nc1c(C(=O)N2CCC(N3CCCCC3)CC2)oc2ccccc12`, the “hERG current change (%, negative = inhibition) at 10uM” value is reported as -69%.
For the molecule `CCn1nc(C(=O)Nc2cc(Cl)ccc2-n2cncn2)c2ccccc2c1=O`, the “hERG current change (%, negative = inhibition) at 10uM” value was -4.32%.
For the molecule `O=C(Nc1ccc(S(=O)(=O)N2CCOCC2)cc1)c1cc(-c2ccccc2O)n[nH]1`, the “hERG current change (%, negative = inhibition) at 10uM” value was determined as 11.7%.
The same measure for `CC1(C)Cc2nc(N3CCOCC3)c(C#N)cc2CO1`: 7.25%; for `O=C1C(=O)N(CCN2CCOCC2)C(c2ccncc2)/C1=C(/O)c1ccc2c(c1)OCO2` (stereo not shown): 8.87%; for `CCOc1ccc(Oc2ccccc2NS(=O)(=O)c2ccc(CCC(=O)O)cc2)cc1`: -1.05%.
As for `CCc1nc2oc3cc(OC)ccc3c(=O)c2c(=O)n1-c1ccccc1`, the “hERG current change (%, negative = inhibition) at 10uM” value is -2.43%.
Then `O=C(CCN1CCCCO1)N1CCCC(N2CCN(c3ccc(F)cc3)CC2)C1` (stereo not shown), with -11.2%; and `NC(N)=NC1=NC(=O)C(Cc2ccccc2)S1` (stereo not shown), with 5.06%; and `O=C(CSc1nc2c(sc3ccccc32)c(=O)n1Cc1ccco1)NCC1CCCO1` (stereo not shown), with -13.9%.
Then `O=C(Cn1ccn(-c2ccc(F)c(F)c2)c(=O)c1=O)NCCc1ccccc1`, with 10%; and `O=C(Nc1cccc(O)c1)c1ccc(Br)cc1`, with -14.2%; and `CN(CCC1CCCCO1)C(=O)CCc1nnc(CCCCc2ccccc2)o1` (stereo not shown), with -6.24%.
As for `Nc1ccc(-c2nc3ccccc3s2)cn1`, the “hERG current change (%, negative = inhibition) at 10uM” value is on record as -4.49%.
The same measure for `CCN(CC)c1ccc(/C=c2\sc3nnc(-c4ccccc4Cl)n3c2=O)cc1`: 2.37%; for `Clc1cccc(NCc2cn3cccnc3n2)c1`: 1.23%; for `CCOC(=O)c1cnc(SCC(=O)OCC(=O)N(CC)C2CCS(=O)(=O)C2)nc1N` (stereo not shown): -7.63%.
The same measure for `COc1ccc(S(=O)(=O)NCCc2ccncc2)cc1`: 15.5%; for `CN(C(=O)COC(=O)c1ccc(F)c(S(=O)(=O)N2CCOCC2)c1)C1CCS(=O)(=O)C1` (stereo not shown): 4.22%.
Then `O=C(CN1C(=O)COCC1=O)N1CCOCC1`, with 3.2%; and `C#CCCc1cocc1/C=[N+](\[O-])c1ccc(C(=O)OCC)cc1`, with 4.38%.
With `CC(=O)n1cc(C2C(=O)CCCC2=O)c2ccccc21`, the “hERG current change (%, negative = inhibition) at 10uM” value is on record as -1.91%.
On to `O=C(O)c1ccc(-n2ncc3c2/C(=C/c2cccc([N+](=O)[O-])c2)CC3)cc1`, for which the “hERG current change (%, negative = inhibition) at 10uM” value is on record as 29.2%.
The same measure for `Cc1nc(N=C(N)N)nc2c(C)cccc12`: 25.2%; for `COc1cc(CN2CCN(c3ncccn3)CC2)cc(OC)c1`: -7.24%; for `COc1ccc(C2=C(C=O)Cc3ccccc3O2)cc1`: -19.9%.
The same measure for `O=C(CCc1c[nH]c2ccccc12)NN1C(=O)NC2(CCCCC2)C1=O`: 1.53%; for `CC(=O)N1CCN(c2ccc(NC(=O)c3ccco3)cc2)CC1`: 16%.
As to `COc1cc(C(=O)NCC(=O)NNC(=O)C2COc3ccccc3O2)cc(OC)c1OC` (stereo not shown), the “hERG current change (%, negative = inhibition) at 10uM” value worked out at 12%.
As to `O=C(Nc1cccc(-n2cccn2)c1)C1CCCN(Cc2cccc(F)c2F)C1` (stereo not shown), the “hERG current change (%, negative = inhibition) at 10uM” value was -17.8%.
For `NC1CCN(c2c(F)cc3c(=O)c(C(=O)O)cn(C4CC4)c3c2Cl)C1` (stereo not shown), the “hERG current change (%, negative = inhibition) at 10uM” value is given as 13.4%.
Turning to `Cc1[nH]c2ccccc2c1N=Nc1cccc(C(=O)O)c1`, the “hERG current change (%, negative = inhibition) at 10uM” value was determined as 28.2%.
On to `COc1cc(NC(=S)NNC(=O)CC(C)C)c(OC)cc1Cl`, for which the “hERG current change (%, negative = inhibition) at 10uM” value is 10.8%.
On to `COC(=O)CC1=NN(c2ccc(OC)cc2)C(=O)/C1=C\c1ccc(Cl)cc1`, for which the “hERG current change (%, negative = inhibition) at 10uM” value is listed as 7.33%.
As for `COc1ccc(C)cc1NC(=O)c1ccccc1N(C)S(=O)(=O)c1ccccc1`, the “hERG current change (%, negative = inhibition) at 10uM” value was -1.38%.
As to `CC1CCCCN1C(=O)CSc1nc(-c2ccccc2)cn1N` (stereo not shown), the “hERG current change (%, negative = inhibition) at 10uM” value is on record as 0.609%.
For `CCNS(=O)(=O)c1ccc(C(=O)OCc2cc(=O)oc3cc(OC)ccc23)cc1`, the “hERG current change (%, negative = inhibition) at 10uM” value is on record as -11.9%.
`O=C(NCC(c1ccco1)N1CCc2ccccc21)C(=O)Nc1ccc(F)cc1F` (stereo not shown): the “hERG current change (%, negative = inhibition) at 10uM” value is listed as -34.8%.
For `C/C(=N\Nc1ccc(C(=O)O)cc1)c1ccc2c(c1)Nc1ccccc1S2.O=S(=O)(O)O`, the “hERG current change (%, negative = inhibition) at 10uM” value is -14.8%.
With `CCCCc1nc2ccccc2c(C(=O)O)c1C`, the “hERG current change (%, negative = inhibition) at 10uM” value came out at 7.29%.
Consider `Cc1cc(NS(=O)(=O)c2ccc(NC(=O)C(C)N3C(=O)c4ccccc4C3=O)cc2)nc(C)n1` (stereo not shown), for which the “hERG current change (%, negative = inhibition) at 10uM” value is given as 0.543%.
As for `CCOC(=O)C1(P(=O)(c2ccccc2)c2ccccc2)CCC1`, the “hERG current change (%, negative = inhibition) at 10uM” value was determined as 0.871%.
As to `Cc1cccn2c(=O)c(C=O)c(N3CCSCC3)nc12`, the “hERG current change (%, negative = inhibition) at 10uM” value is recorded as -6.43%.
